# Measurements from PubChem BioAssay AID463173 (ICCB-Longwood Screening Facility, Harvard Medical School, 2010).
# Hit rate of the full screen: of about 52,000 compounds, about 1,700 (3.3%) were called active. No stated cut-off is given here; in the data, active means survival mostly below about 52% (no sharp cut-off); inactive means mostly above about 56%. Some of the results follow.
# Tested on: Wild type
# Assay: S. aureus survival, RN4220 and DeltatarO strains – OD600, teichoic acid synthesis inhibitors, primary screen (AID 463173)
# Conditions: S. aureus RN4220 wild type/DeltatarO growth, OD600, 18 h, hits give low values, screened at 18.75 µg/mL (by protocol)
row,SMILES,survival
1,CC1CCc2c(sc3nc(SCC(=O)Nc4c[nH]c(=O)[nH]c4=O)[nH]c(=O)c23)C1 (stereo unspecified),inactive: 107%
2,COc1ccc(N2CCN(C(=O)c3c4c(nc5ccccc35)C(=O)N(C3CCCCC3)C4)CC2)cc1,inactive: 130%
3,COc1cccc(N2CC(NC(=O)C3CCCC3)CC2=O)c1 (stereo unspecified),inactive: 64%
4,O=C(Nc1ccc2nc(SCC(=O)N3CCCC3)sc2c1)c1cccc(F)c1,inactive: 71%
5,CCc1ccc(-n2c(=O)c3ccc(C(=O)NCCc4ccccc4)cc3n(Cc3ccccc3C#N)c2=O)cc1,inactive: 131%
6,COC(=O)c1c(-c2cccs2)csc1NC(=O)c1ccc(C(C)(C)C)cc1,inactive: 82%
7,CSc1ccc(C2c3[nH]c4ccccc4c3CCN2C(=O)CCC2CCCC2)cc1 (stereo unspecified),inactive: 83%
8,COc1ccc(-c2nc3ccccc3o2)cc1NC(=O)c1ccc(OCC(C)C)cc1,inactive: 55%
9,Cc1ccc2c(=O)cc(C(=O)Nc3c(C(=O)c4ccccc4)oc4ccccc34)oc2c1,inactive: 100%
10,CCOc1ccc(NS(=O)(=O)c2ccc3[nH]cc(C(=O)N(C)C4CCCCC4)c(=O)c3c2)cc1,inactive: 60%
11,CCOC(=O)c1c(-c2ccc(C)cc2C)csc1NC(=O)c1ccccc1Cl,inactive: 64%
12,NC(=O)C1CCN(C(=O)c2ccc3c(c2)N(Cc2cccc(Cl)c2)C(=O)c2ccccc2S3(=O)=O)CC1,inactive: 69%
13,O=C(NCCCN1CCCCC1)c1ccc2c(c1)sc1nc(-c3ccc(F)cc3)cn12,inactive: 43%
14,Cc1cccc2cc(C#N)c(SCCN3CCCCC3)nc12,inactive: 105%
15,COC(=O)c1c(-c2cccs2)csc1NC(=O)COc1ccccc1,inactive: 81%
16,COc1ccc(C2C(=O)N(C3CCCCCC3)CC(=O)N2Cc2ccccc2)cc1 (stereo unspecified),inactive: 67%
17,Cc1cc(N2CCOCC2)nc([S+]2CCCC2)n1,inactive: 101%
18,COCCNC(=O)Cn1cc2c(n1)-c1c(oc(C(=O)N3CCCC3)c1C)CC2,inactive: 87%
19,NC(=O)Cn1c(=O)n(CCCCCC(=O)NCc2ccccc2Cl)c(=O)c2sccc21,inactive: 91%
20,C=CCn1c(SCC(=O)Nc2ccc(F)cc2)nc2ccccc2c1=O,inactive: 107%
21,COc1ccc(Cl)cc1S(=O)(=O)n1ccnc1,inactive: 109%
22,CC(CNC(=O)c1ccc(Nc2nc3ccccc3n3nnnc23)cc1)c1ccccc1 (stereo unspecified),inactive: 72%
23,COc1ccc(OC(=O)CSc2nnc(-c3ccc(F)cc3)o2)cc1,inactive: 118%

row,SMILES,survival
1,CCCn1c2ccccc2c2cnn(CC(=O)NC(C)CC)c(=O)c21 (stereo unspecified),inactive: 64%
2,CCCCOC(=O)/C(C#N)=C/c1ccc(-c2ccc(Br)cc2)o1,inactive: 84%
3,CCC(=O)N1CCN(c2nc3c(C)cccc3s2)CC1,inactive: 80%
4,Cc1ccc([N+](=O)[O-])c(Oc2ncnc3c2oc2ccccc23)c1,inactive: 95%
5,N#CC1=C(N)Oc2c(c(=O)oc3ccccc23)C1,inactive: 88%
6,Cc1ccc(N2C(=O)CSC23C(=O)N(CC(=O)Nc2ccc(C)cc2C)c2ccccc23)cc1 (stereo unspecified),inactive: 71%
7,Cn1c(Cc2cccs2)nnc1SCC(=O)N1CCCc2ccccc21,inactive: 109%
8,CCc1cccc(C)c1NC(=O)c1nc2ccccc2nc1N1CCCCC1,inactive: 74%
9,COc1ccc2c(Sc3ccccc3)c(C(=O)N3CCC(C)CC3)[nH]c2c1,inactive: 60%
10,Cc1ccc(NC(=O)CCCN2C(=O)COc3ccc(C)cc32)c(C)c1,inactive: 121%
11,Cc1ccc(CNC(=O)CN2C(=O)CSc3ccc(S(=O)(=O)N4CCCC4)cc32)cc1,inactive: 81%
12,CCc1ccc(C(=O)CSc2nc(-c3ccccc3)nc3c2CCCC3)cc1,inactive: 73%
13,Cc1ccc(C)c(N2CCN(S(=O)(=O)c3ccc4c(c3)CCCN4C(=O)C3CCC3)CC2)c1,inactive: 74%
14,COc1ccc2nc3sc(C(=O)N4CCN(c5ccc(F)cc5)CC4)cc3cc2c1,inactive: 79%
15,O=C(NCCn1cnc2cccnc21)N(c1ccccc1)c1ccccc1,inactive: 97%
16,Cc1cc2oc(C(=O)Nc3sc4c(c3C(=O)NCc3ccccc3)CCCC4)cc(=O)c2cc1C,inactive: 82%
17,COc1ccc(CNS(=O)(=O)c2ccc(F)c(C(=O)Nc3c(C)cc(C)cc3C)c2)cc1,inactive: 80%
18,CCOC(=O)c1cc(-c2ccc(OC)cc2)n(CCC(=O)Nc2cccc(C(C)=O)c2)c1C,inactive: 75%
19,COc1cccc(-c2nc3c(c(SCc4ccccc4Cl)n2)Cc2c(CO)cnc(C)c2O3)c1,inactive: 87%
20,CN(C)c1ccc(CNC(=O)CN2C(=O)CCn3nc(-c4cn(C)c5ccccc45)cc32)cc1,inactive: 53%
21,COc1ccc(-c2noc(CN(C(=O)Cc3ccc(C)cc3)C(C)C)n2)cc1,active: 5%
22,CCOC(=O)c1cc2occc2n1CC,inactive: 115%
23,CCC(C)NC(=O)CSc1nnc(-c2ccc(C)cc2)c(-c2ccc(C)cc2)n1 (stereo unspecified),inactive: 73%

row,SMILES,survival
1,COCCCNC(=O)c1sc2nc(C)c(C(=O)Nc3ccc(C)cc3C)c(-c3ccc(Br)cc3)c2c1N,inactive: 87%
2,Cc1ccc(CSCCC(=O)N2CCN(c3cc(C)ccc3C)CC2)cc1,inactive: 98%
3,CCCN(CCC)C(=O)C1CCCN(c2ncnc3onc(-c4ccc(F)cc4)c23)C1 (stereo unspecified),inactive: 72%
4,COc1cccc(CNC(=O)C2CCN(C(=O)c3sccc3-n3cccc3)CC2)c1,inactive: 77%
5,O=C(NCCCO)C(=O)Nc1c2c(nn1-c1ccccc1)CSC2,inactive: 85%
6,CCC(CC)C(=O)NCc1nc2cccnc2n1Cc1ccc(F)cc1,inactive: 87%
7,CCCN(CCC)C(=O)c1cn(CC)c2ccc(S(=O)(=O)N3CCCCC3)cc2c1=O,inactive: 133%
8,COC(=O)C1CC23C=CNC4CCC5(c6ccccc6NC15C2C)C43 (stereo unspecified),inactive: 112%
9,CCc1ccc(NC(=O)CSc2nc3c(sc4ccccc43)c(=O)n2CCN(CC)CC)cc1,inactive: 73%
10,Cc1ccc(CNS(=O)(=O)c2cc3c(cc2C)N(C)CCO3)cc1,inactive: 78%
11,Cc1cn2c(=O)cc(COC(=O)c3ccccc3F)nc2s1,inactive: 63%
12,O=C(CN1C(=O)C2(SCC(=O)N2c2ccccc2)c2ccccc21)NCCc1ccccc1 (stereo unspecified),inactive: 136%
13,Cc1ccc(C(=O)Nc2ccccc2C(=O)OCc2cc(=O)n3nc(C4CC4)sc3n2)cc1,inactive: 87%
14,COc1cc(C)ccc1OCCSc1nc2ccc(NC(=O)c3cccs3)cc2s1,inactive: 83%
15,Cc1cc(C)cc(NC(=O)CCCc2nnc3n(CC(C)C)c(=O)c4sccc4n23)c1,inactive: 97%
16,Cc1ccc(NC(=O)c2ccc3c(c2)NC(=O)c2ccccc2S3)cc1,inactive: 89%
17,CCOC(=O)c1cc(C(C)(C)C)oc1CN,inactive: 95%
18,CC(=O)Nc1cccc(NC(=O)CSc2nccn2Cc2ccco2)c1,inactive: 75%
19,Cc1ccc(S(=O)(=O)C(CNC(=O)COc2ccc(Cl)cc2)c2ccco2)cc1 (stereo unspecified),inactive: 120%
20,CCOc1ccc(-c2nnc(SCC(=O)c3ccc(F)cc3)n2-c2ccccc2)cc1,inactive: 153%
21,Cc1ccc(Cn2ccnc2SCC(=O)Nc2ccc3c(c2)OCCO3)cc1,inactive: 83%
22,COc1ccc(/C=C/C(=O)Nc2ccc(Cl)cc2Cl)cc1,inactive: 82%
23,CCN(CC)CCCNC(=O)C(=O)Nc1ccc2nc3n(c(=O)c2c1)CCCCC3,inactive: 86%

row,SMILES,survival
1,O=C(Nc1cccc(Cl)c1)c1cc(S(=O)(=O)N2CCCc3ccccc32)ccc1F,inactive: 120%
2,CCOc1cc(C2CC(=O)Nc3c2c(=O)nc(SCc2cccc(Cl)c2)n3C)ccc1O (stereo unspecified),inactive: 85%
3,Cc1ccccc1CNC(=O)c1cc2cccc3c2n1CC(C)S3 (stereo unspecified),inactive: 73%
4,COCCNC(=O)N1c2ccccc2Sc2ccccc21,inactive: 112%
5,COc1ccc(-c2cc(C(=O)Nc3sc4c(c3C(N)=O)CCC(C)C4)no2)cc1 (stereo unspecified),inactive: 135%
6,CCOC(=O)c1[nH]cnc1C(=O)NC1CCCCC1,inactive: 110%
7,Cc1c(NC(=O)Nc2ccc(Cl)c(C(F)(F)F)c2)c(=O)n(-c2ccccc2)n1C,inactive: 136%
8,Fc1ccccc1N1CCN(c2ncnc3onc(-c4cccc(Cl)c4)c23)CC1,inactive: 79%
9,CCOc1ccc(OCC)c(-n2cnnn2)c1,inactive: 87%
10,COc1cccc(OCc2cc(=O)n3cc(C)sc3n2)c1,inactive: 55%
11,CC(=O)Nc1ccc(NC(=O)c2nc(SCc3ccccc3C)ncc2Cl)cc1,inactive: 79%
12,Cc1cccn2c(=O)cc(COc3ccc(NC(=O)C(C)Oc4ccccc4)cc3)nc12 (stereo unspecified),inactive: 78%
13,NS(=O)(=O)c1ccc(NC(=O)CN2CCN(c3ccc(F)cc3)CC2)cc1,inactive: 67%
14,Cn1c(=O)c2c(-c3ccccc3Br)n(Cc3ccccc3)cc2n(C)c1=O,inactive: 82%
15,CCCCNC(=O)c1cc(-c2ccc(Cl)c(Cl)c2)on1,inactive: 76%
16,Cc1ccc(Cl)cc1-n1ncc2c(NCCC3=CCCCC3)ncnc21,inactive: 119%
17,COc1ccc(-n2c(SCC(=O)NC3CCCCC3)nc3c([nH]c4ccccc43)c2=O)cc1,inactive: 32%
18,COc1ccc(-c2cc3c(=O)n(CC(=O)Nc4cc(C)ccc4C)ccn3n2)cc1,inactive: 69%
19,Cc1ccc(S(=O)(=O)n2nc(C)c(S(=O)(=O)N3CCCCC3)c2C)cc1,inactive: 82%
20,CCc1ccc(CN(Cc2ccco2)C(=O)c2ccc(C)cc2)cc1,inactive: 56%
21,CSc1ccc(/C=C/c2nc3ccccc3n2S(=O)(=O)c2ccc(F)c(C)c2)cc1,inactive: 77%
22,CCOc1ccc(NC(=O)CCc2c(C)nc3c(c(C)nn3-c3ccccc3)c2C)cc1,inactive: 65%
